# Laboratory results as given in publication PMC4336329 (PLoS ONE, 2015).
# In all, about 310,000 compounds went through this assay and about 14,000 (4.5%) showed an effect of 50% or more. The effect is printed as a negative number. The list shows a part of the results.
# Biological target: human ether-à-go-go-related gene (hERG) potassium channel (human, UniProt Q12809)
# Test: primary screen, population patch clamp on CHO cells stably expressing hERG
# 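Also: peak tail current of the secondary pulse compared with the same well before compound.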
# human ether-à-go-go-related gene (hERG) potassium channel, sequence (Q12809 whole entry, looked up): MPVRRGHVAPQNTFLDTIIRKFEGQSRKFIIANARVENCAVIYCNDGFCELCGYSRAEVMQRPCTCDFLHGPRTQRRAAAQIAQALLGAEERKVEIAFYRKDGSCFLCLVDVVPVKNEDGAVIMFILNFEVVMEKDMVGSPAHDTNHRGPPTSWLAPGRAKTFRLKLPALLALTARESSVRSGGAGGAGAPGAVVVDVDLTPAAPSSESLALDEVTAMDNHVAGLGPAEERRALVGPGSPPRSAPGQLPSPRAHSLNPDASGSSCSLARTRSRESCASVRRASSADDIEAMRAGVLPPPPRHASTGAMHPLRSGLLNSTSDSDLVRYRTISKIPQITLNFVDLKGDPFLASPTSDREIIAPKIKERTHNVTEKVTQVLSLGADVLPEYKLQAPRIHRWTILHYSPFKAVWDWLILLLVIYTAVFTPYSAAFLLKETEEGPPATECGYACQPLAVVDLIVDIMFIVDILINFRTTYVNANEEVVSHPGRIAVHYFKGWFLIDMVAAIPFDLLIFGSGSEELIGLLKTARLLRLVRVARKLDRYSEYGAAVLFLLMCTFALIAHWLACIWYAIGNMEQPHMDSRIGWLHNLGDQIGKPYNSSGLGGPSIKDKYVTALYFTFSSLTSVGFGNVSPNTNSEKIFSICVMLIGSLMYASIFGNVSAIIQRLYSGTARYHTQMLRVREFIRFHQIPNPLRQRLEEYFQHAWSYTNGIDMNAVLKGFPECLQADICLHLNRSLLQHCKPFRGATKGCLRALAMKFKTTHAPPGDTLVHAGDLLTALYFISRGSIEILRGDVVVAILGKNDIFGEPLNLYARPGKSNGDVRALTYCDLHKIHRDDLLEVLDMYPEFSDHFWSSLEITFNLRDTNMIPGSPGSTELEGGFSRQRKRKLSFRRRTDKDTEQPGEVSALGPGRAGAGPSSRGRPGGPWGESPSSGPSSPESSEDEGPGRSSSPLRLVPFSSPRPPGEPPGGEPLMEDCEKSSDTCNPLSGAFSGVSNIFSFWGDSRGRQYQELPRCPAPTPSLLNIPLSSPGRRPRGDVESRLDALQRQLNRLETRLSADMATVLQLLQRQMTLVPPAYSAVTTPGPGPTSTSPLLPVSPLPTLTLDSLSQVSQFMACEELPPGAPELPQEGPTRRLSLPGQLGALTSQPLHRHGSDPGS
row,SMILES,"hERG current change (%, negative = inhibition) at 10uM"
1,CCC(C)(C)NC(=O)C(c1ccc(OC)cc1)N(Cc1ccccc1)C(=O)CCC(=O)Nc1cc(C)on1 (stereo not drawn),-8.73%
2,Cc1ccc(CNC(=O)C2CCN(S(=O)(=O)N3CCC4(CC3)OCCO4)CC2)cc1,0.58%
3,CC(NC(=O)c1cc(S(=O)(=O)N2CCCC2)cn1C)c1ccccc1 (stereo not drawn),-0.137%
4,CCC(C)C(=O)Nn1c(C2CC2)nc2cc(OC)c(OC)cc2c1=O (stereo not drawn),21.8%
5,O=c1cc(-c2cccc3ccccc23)[nH][nH]1,16.8%
6,Cc1cc(C)n(CC(=O)N2c3ccccc3Sc3ccccc32)n1,-8.45%
7,C#CCOCCOCCOCCNc1nc(N2CCN(C(=O)[C@H](CCCC[NH3+])n3cc(CCCC)nn3)CC2)nc(N2CCN(C(=O)[C@H](CCCC[NH3+])n3cc(CCCC)nn3)CC2)n1.[Cl-],12.2%
8,Cc1nc2ccccc2n1CCC(=O)O.Cl,-20.3%
9,Cc1ccccc1-n1nc2c(c1NC(=O)c1cc3ccccc3o1)CS(=O)(=O)C2,-12.9%
10,CC(=O)Nc1ccc(NC(=O)c2sc3nc4n(c(=O)c3c2C)CCCCC4)cc1,-5.6%
11,CCCCOP(=O)(OCCCC)C(O)c1ccc(N(C)C)cc1 (stereo not drawn),11.4%
12,O=C(CCn1cccc1)Nc1ccc(OC(F)(F)F)cc1,2.32%
13,Clc1ccc(N2CCOCC2)nn1,8%
14,CCN(CC)CCCN(Cc1cc2cc3c(cc2[nH]c1=O)OCO3)C(=S)NCCOC,5.4%
15,Cc1cc2nsnc2c(S(=O)(=O)N2CCN(C)CC2)c1C,1.16%
16,CCOc1ccc(OCC)c(NS(=O)(=O)c2cccc3nsnc23)c1,-2.88%
17,CCOc1ccc(NC(=S)NC23CN4CN(CN(C4)C2)C3)cc1,36.9%
18,COc1ccccc1OCCNC(=O)Nc1ccc(Br)cc1,-3.76%
19,COc1ccc(CN2CCC(=O)N([C@H](CO)c3ccccc3)CC2)cc1OC,8.68%
20,CC(C)(C)c1ccc(Oc2cccc(C3CC(=O)C(C4NCCc5ccccc54)C(=O)C3n3cncn3)c2)cc1 (stereo not drawn),1.29%
21,O=C(Nc1ccccc1)[C@@H]1CC=C[C@@H]2CCN(Cc3ccc(Cl)c(Cl)c3)C(=O)[C@@H]21,-4.46%

row,SMILES,"hERG current change (%, negative = inhibition) at 10uM"
1,Cc1cccc(CSc2ncc(CO)n2C)c1,3.46%
2,Nc1c(C(=O)N/N=C/c2ccc([N+](=O)[O-])cc2)cnn1-c1ccccc1,13.6%
3,O=C1/C(=C/c2ccccn2)SC(=S)N1CCc1ccccc1,13.4%
4,CCN(CC)c1ccc(N=Cc2c(O)n(-c3ccc(Cl)cc3)c(=O)[nH]c2=O)cc1,14.5%
5,CCCOC(=O)c1c(NC(=O)CCCn2nc([N+](=O)[O-])cc2C)sc(C(=O)OC)c1C,1.32%
6,COc1cc2c(cc1OC)C(CCc1ccccc1)=NCC2,-48.1%
7,Cc1ccc(CCNC(=O)CNC(=S)N(Cc2ccccc2)Cc2cccnc2)cc1,-55%
8,CC(C)CCNC(=O)COc1ccc(N(C)S(=O)(=O)c2ccc(F)cc2)cc1,-35.1%
9,O=C1COc2ccc(C(=O)COC(=O)Cc3ccccc3F)cc2N1,-20.1%
10,O=C(COc1ccc(C(=O)NCC2CCCO2)cc1)Nc1cccc(C(F)(F)F)c1 (stereo not drawn),-0.481%
11,Cc1ccc(C(=O)N2NC(c3ccc(F)cc3)C3C(=O)N(c4ccc(C)cc4)C(=O)C32)cc1 (stereo not drawn),-0.588%
12,Cc1ccc(SCCC(=O)NC(C)C)cc1,20.4%
13,CC(CN(C)Cc1ccccc1)OC(=O)c1ccc2c(c1)OCCO2.Cl (stereo not drawn),5.15%
14,Cc1nn(C)c(C(=O)Nc2ccc(Cl)c([N+](=O)[O-])c2)c1Cl,19.2%
15,O=C(c1cccs1)N1CCCN(c2ncnc3scc(-c4ccccc4)c23)CC1,-60.7%
16,CCN(CC)c1ccc(/C=N/NC(=S)NCc2ccco2)cc1,10.9%
17,COc1ccc(CCNC(=O)c2ccc(CNc3c(N4CCOCC4)c(=O)c3=O)cc2)cc1OC,4.75%
18,COC(=O)C1=NN(c2ccccc2OC)C2C(=O)N(c3ccccc3OC)C(=O)C12 (stereo not drawn),9.21%
19,COc1ccc(-c2nnc(NC(=O)C3CC3)o2)cc1,-24%
20,Cc1ccc(NC(=O)CCN2C(=O)c3ccccc3C2=O)cc1C,4.19%
21,O=C(CSc1nnc2ccc(-c3ccncc3)nn12)N1CCCCC1,-1.5%
